# In the supplement of paper PMC8728848:
# This is one part of the list.
# B1: SSL (Salmo salar) (protein)
# chain: TGAKGAEEGVVPAETRNQCPTGWFQFGSRCFMFVETARSWPLAERHCVSLGANLASVHSSADDQFLQAIAGCKTGAFSTTWIGGFDAVQDRLWFWSDGSEFDYQNWAKGEPNNSGGREPCIVINWGDEYRWNDIKCGNSFPSVCSKRICEIQKN
# Columns and labels:
# Test in all cases: glycan array binding signal (z-score within array); higher = stronger binding
# Settings in all cases: glycan notation: IUPAC condensed, linker removed
# [1] = molecular target: GalNAc(b1-3)Gal(a1-4)Gal(b1-4)GlcNAc
# In short: (§1)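 From the Consortium for Functional Glycomics database, 3228 arrays were curated, keeping only those whose protein sequence was available. Binding is given as a within-array Z-score averaged across arrays sharing a protein sequence and across linkers. Negative Z-scores can be read as non-binding.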
# [2] = molecular target: GalNAc(b1-3)Gal(a1-4)Gal(b1-4)GlcNAc(b1-3)Gal(b1-4)Glc
# In short: as §1
# [3] = molecular target: GalNAc(b1-3)Gal(a1-6)Gal(b1-4)Glc
# In short: as §1
# GalNAc(b1-3)GalNAc = molecular target: GalNAc(b1-3)GalNAc
# In short: as §1
# GalNAc(b1-4)GlcNAc = molecular target: GalNAc(b1-4)GlcNAc
# In short: as §1
# [4] = molecular target: GalNAc(b1-4)GlcNAc(b1-2)Man(a1-3)[GalNAc(b1-4)GlcNAc(b1-2)Man(a1-6)]Man(b1-4)GlcNAc(b1-4)GlcNAc
# In short: as §1
# Glc(a1-4)Glc = molecular target: Glc(a1-4)Glc
# In short: as §1
# Glc(a1-6)Glc(a1-6)Glc = molecular target: Glc(a1-6)Glc(a1-6)Glc
# In short: as §1
# Glc(b1-4)Glc = molecular target: Glc(b1-4)Glc
# In short: as §1
# Glc(b1-6)Glc = molecular target: Glc(b1-6)Glc
# In short: as §1
# GlcA(b1-3)Gal = molecular target: GlcA(b1-3)Gal
# In short: as §1
# GlcA(b1-3)GlcNAc = molecular target: GlcA(b1-3)GlcNAc
# In short: as §1
# GlcA(b1-6)Gal = molecular target: GlcA(b1-6)Gal
# In short: as §1
# [5] = molecular target: GlcNAc(a1-3)Gal(b1-4)GlcNAc
# In short: as §1
# [6] = molecular target: GlcNAc(a1-4)Gal(b1-3)GlcNAc
# In short: as §1
# [7] = molecular target: GlcNAc(a1-4)Gal(b1-4)GalNAc
# In short: as §1
# [8] = molecular target: GlcNAc(a1-4)Gal(b1-4)GlcNAc
# In short: as §1
# [9] = molecular target: GlcNAc(a1-4)Gal(b1-4)GlcNAc(b1-3)Gal(b1-4)Glc
# In short: as §1
# [10] = molecular target: GlcNAc(a1-4)Gal(b1-4)GlcNAc(b1-3)Gal(b1-4)GlcNAc
# In short: as §1
# [11] = molecular target: GlcNAc(a1-4)Gal(b1-4)GlcNAc(b1-3)Gal(b1-4)GlcNAc(b1-3)Gal(b1-4)GlcNAc
# In short: as §1
# [12] = molecular target: GlcNAc(a1-4)Gal(b1-4)GlcNAc(b1-3)Gal(b1-4)[Fuc(a1-3)]GlcNAc(b1-3)Gal(b1-4)[Fuc(a1-3)]GlcNAc
# In short: as §1
# [13] = molecular target: GlcNAc(a1-6)Gal(b1-4)GlcNAc
# In short: as §1
# [14] = molecular target: GlcNAc(b1-2)Gal(b1-3)GalNAc
# In short: as §1
# [15] = molecular target: GlcNAc(b1-2)Man(a1-3)[GlcNAc(b1-2)Man(a1-6)]Man(b1-4)GlcNAc(b1-4)GlcNAc
# In short: as §1
# [16] = molecular target: GlcNAc(b1-2)Man(a1-3)[GlcNAc(b1-2)Man(a1-6)]Man(b1-4)GlcNAc(b1-4)[Fuc(a1-6)]GlcNAc
# In short: as §1
# [17] = molecular target: GlcNAc(b1-2)[GlcNAc(b1-4)]Man(a1-3)[GlcNAc(b1-2)Man(a1-6)]Man(b1-4)GlcNAc(b1-4)GlcNAc
# In short: as §1
# GlcNAc(b1-3)Gal = molecular target: GlcNAc(b1-3)Gal
# In short: as §1
# [18] = molecular target: GlcNAc(b1-3)Gal(b1-3)GalNAc
# In short: as §1
# GlcNAc(b1-3)Gal(b1-4)Glc = molecular target: GlcNAc(b1-3)Gal(b1-4)Glc
# In short: as §1
# [19] = molecular target: GlcNAc(b1-3)Gal(b1-4)GlcNAc
# In short: as §1
# [20] = molecular target: GlcNAc(b1-3)Gal(b1-4)GlcNAc(b1-3)Gal(b1-4)GlcNAc
# In short: as §1
# GlcNAc(b1-3)GalNAc = molecular target: GlcNAc(b1-3)GalNAc
# In short: as §1
# GlcNAc(b1-3)Man = molecular target: GlcNAc(b1-3)Man
# In short: as §1
# [21] = molecular target: GlcNAc(b1-3)[GlcNAc(b1-4)][GlcNAc(b1-6)]GlcNAc
# In short: as §1
# [22] = molecular target: GlcNAc(b1-3)[GlcNAc(b1-6)]Gal(b1-4)GlcNAc
# In short: as §1
# [23] = molecular target: GlcNAc(b1-3)[GlcNAc(b1-6)]GalNAc
# In short: as §1
# [24] = molecular target: GlcNAc(b1-4)Gal(b1-4)GlcNAc
# In short: as §1
# GlcNAc(b1-4)GlcNAc = molecular target: GlcNAc(b1-4)GlcNAc
# In short: as §1
# [25] = molecular target: GlcNAc(b1-4)GlcNAc(b1-4)GlcNAc
# In short: as §1
# [26] = molecular target: GlcNAc(b1-4)GlcNAc(b1-4)GlcNAc(b1-4)GlcNAc(b1-4)GlcNAc
# In short: as §1
# [27] = molecular target: GlcNAc(b1-4)GlcNAc(b1-4)GlcNAc(b1-4)GlcNAc(b1-4)GlcNAc(b1-4)GlcNAc
# In short: as §1
# [28] = molecular target: GlcNAc(b1-4)[GlcNAc(b1-6)]GalNAc
# In short: as §1
# [29] = molecular target: GlcNAc(b1-6)Gal(b1-4)GlcNAc
# In short: as §1
# GlcNAc(b1-6)GalNAc = molecular target: GlcNAc(b1-6)GalNAc
# In short: as §1
# GlcNAc3Prop(b1-4)GlcNAc = molecular target: GlcNAc3Prop(b1-4)GlcNAc
# In short: as §1
binder,measurement,setting,value
B1,glycan array binding signal (z-score),[1],-0.176
same,glycan array binding signal (z-score),[2],-0.183
same,glycan array binding signal (z-score),[3],-0.178
same,glycan array binding signal (z-score),GalNAc(b1-3)GalNAc,-0.159
same,glycan array binding signal (z-score),GalNAc(b1-4)GlcNAc,-0.162
same,glycan array binding signal (z-score),[4],-0.165
same,glycan array binding signal (z-score),Glc(a1-4)Glc,2.63
same,glycan array binding signal (z-score),Glc(a1-6)Glc(a1-6)Glc,-0.12
same,glycan array binding signal (z-score),Glc(b1-4)Glc,0.039
same,glycan array binding signal (z-score),Glc(b1-6)Glc,-0.048
same,glycan array binding signal (z-score),GlcA(b1-3)Gal,1.44
same,glycan array binding signal (z-score),GlcA(b1-3)GlcNAc,4.35
same,glycan array binding signal (z-score),GlcA(b1-6)Gal,0.299
same,glycan array binding signal (z-score),[5],0.457
same,glycan array binding signal (z-score),[6],1.56
same,glycan array binding signal (z-score),[7],-0.147
same,glycan array binding signal (z-score),[8],-0.033
same,glycan array binding signal (z-score),[9],0.85
same,glycan array binding signal (z-score),[10],1.65
same,glycan array binding signal (z-score),[11],0.978
same,glycan array binding signal (z-score),[12],0.023
same,glycan array binding signal (z-score),[13],-0.172
same,glycan array binding signal (z-score),[14],-0.165
same,glycan array binding signal (z-score),[15],3.12
same,glycan array binding signal (z-score),[16],-0.164
same,glycan array binding signal (z-score),[17],6.65
same,glycan array binding signal (z-score),GlcNAc(b1-3)Gal,-0.139
same,glycan array binding signal (z-score),[18],0.248
same,glycan array binding signal (z-score),GlcNAc(b1-3)Gal(b1-4)Glc,-0.112
same,glycan array binding signal (z-score),[19],-0.022
same,glycan array binding signal (z-score),[20],-0.189
same,glycan array binding signal (z-score),GlcNAc(b1-3)GalNAc,-0.142
same,glycan array binding signal (z-score),GlcNAc(b1-3)Man,-0.129
same,glycan array binding signal (z-score),[21],11.7
same,glycan array binding signal (z-score),[22],6.68
same,glycan array binding signal (z-score),[23],0.96
same,glycan array binding signal (z-score),[24],1.56
same,glycan array binding signal (z-score),GlcNAc(b1-4)GlcNAc,-0.148
same,glycan array binding signal (z-score),[25],-0.081
same,glycan array binding signal (z-score),[26],-0.081
same,glycan array binding signal (z-score),[27],-0.065
same,glycan array binding signal (z-score),[28],8.49
same,glycan array binding signal (z-score),[29],-0.164
same,glycan array binding signal (z-score),GlcNAc(b1-6)GalNAc,-0.158
same,glycan array binding signal (z-score),GlcNAc3Prop(b1-4)GlcNAc,-0.181
